In the supplement of paper PMC12067230:
Single values of this set are uncertain.

experiment: amyloid nucleation score relative to library mode (yeast Sup35 reporter selection) (log enrichment difference); higher = more amyloid nucleation; sequences are the first 22 residues of the Bri2 peptide extended by up to 12 random residues; settings: random library (experiment): 1;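 active = nucleation score significantly above 0 at FDR 0.05; inactive = not significantly above 0 or absent from output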
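Note: [psi-pin-] Saccharomyces cerevisiae expressing SupN fusions, induced by 100 µM Cu2SO4, selected 7 d at 30 °C without adenine and uracil, scored by deep sequencing of output versus input.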

| Sequence | amyloid nucleation score |
| --- | --- |
| EASNCFAIRHFENKFAVETLICLIWL | 4.11 |
| EASNCFAIRHFENKFAVETLICLIWLSVLYRQSR | inactive |
| EASNCFAIRHFENKFAVETLICLKA | inactive |
| EASNCFAIRHFENKFAVETLICLKAVDVCMWR | inactive |
| EASNCFAIRHFENKFAVETLICLKDSRTKFTFRG | 4.14 |
| EASNCFAIRHFENKFAVETLICLKF | 4.37 |
| EASNCFAIRHFENKFAVETLICLKIVCCSYPYSG | 5.76 |
| EASNCFAIRHFENKFAVETLICLKKVLRSQDHGK | -0.601 |
| EASNCFAIRHFENKFAVETLICLKLDCMLELFGI | 3.84 |
| EASNCFAIRHFENKFAVETLICLKPVTLRNGHAF | inactive |
| EASNCFAIRHFENKFAVETLICLKRERYIYMWHA | inactive |
| EASNCFAIRHFENKFAVETLICLKRVASGLRHVG | inactive |
| EASNCFAIRHFENKFAVETLICLKSIGSWMYLVR | inactive |
| EASNCFAIRHFENKFAVETLICLKSMGA | -0.557 |
| EASNCFAIRHFENKFAVETLICLKSYCHRWTVRM | inactive |
| EASNCFAIRHFENKFAVETLICLKVWKSLSEELR | inactive |
| EASNCFAIRHFENKFAVETLICLKW | 3.81 |
| EASNCFAIRHFENKFAVETLICLKWGHVIYDCLT | inactive |
| EASNCFAIRHFENKFAVETLICLKWSCRFNDALC | 3.44 |
| EASNCFAIRHFENKFAVETLICLKWSWSVPRAEG | inactive |
| EASNCFAIRHFENKFAVETLICLL | 7.64 |
| EASNCFAIRHFENKFAVETLICLLAASCTNGRWL | -0.203 |

| Sequence | amyloid nucleation score |
| --- | --- |
| EASNCFAIRHFENKFAVETLICLLAMDRSRPLVR | inactive |
| EASNCFAIRHFENKFAVETLICLLARTM | inactive |
| EASNCFAIRHFENKFAVETLICLLCSVDWPDRVV | 7.95 |
| EASNCFAIRHFENKFAVETLICLLCVHNWTWFIA | inactive |
| EASNCFAIRHFENKFAVETLICLLDRYRRRSRML | inactive |
| EASNCFAIRHFENKFAVETLICLLETQKPAKLGW | 1.61 |
| EASNCFAIRHFENKFAVETLICLLFTGLYTGRGS | inactive |
| EASNCFAIRHFENKFAVETLICLLGETP | -0.405 |
| EASNCFAIRHFENKFAVETLICLLGPWSSKSSYG | 6.15 |
| EASNCFAIRHFENKFAVETLICLLHRMSYLVTM | inactive |
| EASNCFAIRHFENKFAVETLICLLHTKRCPRSLR | inactive |
| EASNCFAIRHFENKFAVETLICLLKNKSVLHVMF | inactive |
| EASNCFAIRHFENKFAVETLICLLLCRLRVSESA | inactive |
| EASNCFAIRHFENKFAVETLICLLLRG | inactive |
| EASNCFAIRHFENKFAVETLICLLMFTACALWGV | 2.42 |
| EASNCFAIRHFENKFAVETLICLLMGKATSLNGR | inactive |
| EASNCFAIRHFENKFAVETLICLLMNRMRDSVVD | inactive |
| EASNCFAIRHFENKFAVETLICLLMSVN | 3.01 |
| EASNCFAIRHFENKFAVETLICLLNYSVTLVCCP | inactive |
| EASNCFAIRHFENKFAVETLICLLPCLYMRFVWR | -0.187 |
| EASNCFAIRHFENKFAVETLICLLPHRMVMRVDR | inactive |
| EASNCFAIRHFENKFAVETLICLLPLAKVEERAS | 2.97 |

same assay, conditions: random library (experiment): 2

| Sequence | amyloid nucleation score |
| --- | --- |
| EASNCFAIRHFENKFAVETLICLIWTDNV | inactive |
| EASNCFAIRHFENKFAVETLICLIWVLHVNSILT | inactive |
| EASNCFAIRHFENKFAVETLICLIYISESGYIQW | inactive |
| EASNCFAIRHFENKFAVETLICLK | 1.08 |
| EASNCFAIRHFENKFAVETLICLKCSMSVGGLWC | 6.93 |
| EASNCFAIRHFENKFAVETLICLKCYIWSFTTTF | inactive |
| EASNCFAIRHFENKFAVETLICLKGMQSWIICSS | inactive |
| EASNCFAIRHFENKFAVETLICLKILFINLHGLG | inactive |
| EASNCFAIRHFENKFAVETLICLKKANRRLFTVW | 3.24 |
| EASNCFAIRHFENKFAVETLICLKNELGR | inactive |
| EASNCFAIRHFENKFAVETLICLKPKQELWIFIR | 1.39 |
| EASNCFAIRHFENKFAVETLICLKRSWTTCDWFG | 0.883 |
| EASNCFAIRHFENKFAVETLICLKWDSIALHNRS | 3.5 |
| EASNCFAIRHFENKFAVETLICLKWFVGSDICHR | inactive |
| EASNCFAIRHFENKFAVETLICLKWVCCISLVVP | 4.51 |
| EASNCFAIRHFENKFAVETLICLLAVLLKGDSIK | inactive |
| EASNCFAIRHFENKFAVETLICLLDGLRQLFIIL | inactive |
| EASNCFAIRHFENKFAVETLICLLDSLCIRCGSW | inactive |
| EASNCFAIRHFENKFAVETLICLLEYKFWKCLTW | inactive |
| EASNCFAIRHFENKFAVETLICLLFFSSIFVEQS | inactive |
| EASNCFAIRHFENKFAVETLICLLFHVLGNPSEV | inactive |
| EASNCFAIRHFENKFAVETLICLLFNRMVYRMWL | inactive |
| EASNCFAIRHFENKFAVETLICLLFRCITMLNER | -0.0198 |
| EASNCFAIRHFENKFAVETLICLLFSCGNAYGYW | 5.98 |

| Sequence | amyloid nucleation score |
| --- | --- |
| EASNCFAIRHFENKFAVETLICLLGIVILSFFEW | inactive |
| EASNCFAIRHFENKFAVETLICLLGNIVEVKCSQ | 6.86 |
| EASNCFAIRHFENKFAVETLICLLICFLLWFCRF | 1.63 |
| EASNCFAIRHFENKFAVETLICLLIIRCMTGIYD | inactive |
| EASNCFAIRHFENKFAVETLICLLIMFRTSCLFS | inactive |
| EASNCFAIRHFENKFAVETLICLLKKV | inactive |
| EASNCFAIRHFENKFAVETLICLLKN | inactive |
| EASNCFAIRHFENKFAVETLICLLKTR | inactive |
| EASNCFAIRHFENKFAVETLICLLLCMTVGVWSR | 5.12 |
| EASNCFAIRHFENKFAVETLICLLLDHKRWTVRL | inactive |
| EASNCFAIRHFENKFAVETLICLLLFDFSDQIWG | inactive |
| EASNCFAIRHFENKFAVETLICLLLLMPFRYLWE | inactive |
| EASNCFAIRHFENKFAVETLICLLLNQVGISYKF | 0.908 |
| EASNCFAIRHFENKFAVETLICLLLNYVVVVFRP | inactive |
| EASNCFAIRHFENKFAVETLICLLLSSVLFKVST | inactive |
| EASNCFAIRHFENKFAVETLICLLLVCVHYVAFA | -0.392 |
| EASNCFAIRHFENKFAVETLICLLLVKQSWGWNS | -0.191 |
| EASNCFAIRHFENKFAVETLICLLMFNNKGYVCV | inactive |
| EASNCFAIRHFENKFAVETLICLLMLV | 1.24 |
| EASNCFAIRHFENKFAVETLICLLN | 3.5 |
| EASNCFAIRHFENKFAVETLICLLNCSSCNVVVW | 4.41 |
| EASNCFAIRHFENKFAVETLICLLNKRGFLCGYV | inactive |
| EASNCFAIRHFENKFAVETLICLLNLCNKEWSGR | 7.34 |

same assay, conditions: random library (experiment): 3

| Sequence | amyloid nucleation score |
| --- | --- |
| EASNCFAIRHFENKFAVETLICLIYGQARRGLAP | inactive |
| EASNCFAIRHFENKFAVETLICLKAVLGGWGLQR | inactive |
| EASNCFAIRHFENKFAVETLICLKDSN | inactive |
| EASNCFAIRHFENKFAVETLICLKEVGWALMPLT | inactive |
| EASNCFAIRHFENKFAVETLICLKGSACIGLPHG | 3.27 |
| EASNCFAIRHFENKFAVETLICLKICAASGELIA | inactive |
| EASNCFAIRHFENKFAVETLICLKMVSPINLEGT | inactive |
| EASNCFAIRHFENKFAVETLICLKRNRYVFGAMC | -0.166 |
| EASNCFAIRHFENKFAVETLICLKS | inactive |
| EASNCFAIRHFENKFAVETLICLKSLAWTGYGRF | inactive |
| EASNCFAIRHFENKFAVETLICLKTCFSSMDLHS | 1.51 |
| EASNCFAIRHFENKFAVETLICLKVEQLAGTVVV | inactive |
| EASNCFAIRHFENKFAVETLICLKVVQCSNGTDA | 6.48 |
| EASNCFAIRHFENKFAVETLICLKWHLEYMTRRP | inactive |
| EASNCFAIRHFENKFAVETLICLLAV | 0.00905 |
| EASNCFAIRHFENKFAVETLICLLEVNVWAGGDE | 7.35 |
| EASNCFAIRHFENKFAVETLICLLFLFLTFFCLF | inactive |
| EASNCFAIRHFENKFAVETLICLLGRMQ | 4.08 |
| EASNCFAIRHFENKFAVETLICLLICIDGISLWA | inactive |
| EASNCFAIRHFENKFAVETLICLLIPFVLVLFRM | inactive |
| EASNCFAIRHFENKFAVETLICLLIREDAVGACG | inactive |
| EASNCFAIRHFENKFAVETLICLLKKS | inactive |
| EASNCFAIRHFENKFAVETLICLLLDSLSRRWEG | inactive |
| EASNCFAIRHFENKFAVETLICLLLLRC | inactive |
| EASNCFAIRHFENKFAVETLICLLLQWASRWRMA | inactive |
| EASNCFAIRHFENKFAVETLICLLLYCSGSRHRA | inactive |
| EASNCFAIRHFENKFAVETLICLLMV | inactive |
| EASNCFAIRHFENKFAVETLICLLNERVVVRPVS | inactive |
